From US20070224633A1 (Pieris, published 2007) come the findings set out here.

Assay [1] has as its target T1, human serum albumin (HSA, Sigma) (human, UniProt P02768 25-609).
T1 construct: Control protein; also called HAS; human serum albumine
The experiment in a line: ELISA, control coated, mutein dilution series.

Assay [2] concerns the target T2, human CD154 on CHO-K1 cells transfected with CD154-pcDNA3.1Zeo(+) (human, UniProt P29965 1-261).
T2 construct: also called CHO-CD154; CHO cell line expressing human CD154
T2 sequence: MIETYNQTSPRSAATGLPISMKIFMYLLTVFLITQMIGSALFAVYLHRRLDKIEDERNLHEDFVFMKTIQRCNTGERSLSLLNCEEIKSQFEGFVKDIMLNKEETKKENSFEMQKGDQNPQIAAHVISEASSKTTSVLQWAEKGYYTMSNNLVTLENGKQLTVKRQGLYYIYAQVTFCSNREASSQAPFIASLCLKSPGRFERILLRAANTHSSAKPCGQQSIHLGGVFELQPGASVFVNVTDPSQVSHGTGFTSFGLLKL
As to the kind of experiment: flow cytometry on CHO cells expressing human CD154, fluorescein-labelled monomeric mutein. As to the method:
The mutein F92.8 M1.2 E15 was tested for specific binding to a CHO cell line expressing human CD25 in a flow cytometry assay. For this purpose, the CD25-pcDNA3.1 Zeo(+)- or CD154-pcDNA3.1Zeo(+)-transfected CHO cells described in Examples 15 and 22, respectively were detached from culture flasks with 0.2% w/v EDTA. Approximately 200,000 cells were resuspended in 30 μl PBS/2% v/v FCS and incubated with 2.5 μg of monomeric F92.8 M1.2 E15 fraction obtained as described in Example 20 and labeled at a twofold molar ratio with fluorescein (Fluorescein-5(6)-carboxamido caproic acid N-succinimidyl ester; Fluka) based on the protocol described in Schlehuber and Skerra (supra). As a negative control, 2.5 μg of the recombinant wild type TLPC encoded by pTLPC8 and labeled with fluorescein at a twofold molar ratio was employed. CD25 expression was confirmed with FITC-labeled anti-CD25 mAb (Acris, DM519F), using FITC-labeled IgG1 (Acris, SM10F) as isotype control. After 30 min incubation on ice, cells were washed twice with PBS/2% v/v FCS prior to analysis by flow cytometry using a FACSCalibur (Becton Dickinson).

Assay [3] deals with T3, CD25-Fc (recombinant human IL-2 R alpha/Fc Chimera, R&D systems) (human, UniProt P01589 22-240).
T3 construct: extracellular domain; Bought chimera, held on the plate by the capture mAb; also called captured CD25-Fc; Fc part of the bought chimera not given; not described
T3 sequence (looked up): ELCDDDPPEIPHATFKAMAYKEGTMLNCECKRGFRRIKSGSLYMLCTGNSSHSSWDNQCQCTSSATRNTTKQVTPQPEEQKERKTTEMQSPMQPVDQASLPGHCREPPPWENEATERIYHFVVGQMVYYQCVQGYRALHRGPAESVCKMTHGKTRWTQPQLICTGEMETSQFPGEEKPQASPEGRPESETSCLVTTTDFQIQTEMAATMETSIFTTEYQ
The experiment in a line: ELISA, CD25-Fc (2.5 µg/ml) captured via capture mAb, mutein dilution series, Streptactin-HRP detection; apparent KD from curve fit. As to the method:
(§1) For this purpose, the wells of a black Fluotrac 600 microtiter plate (Greiner; 384 well) were coated with the capture mAb (Mouse Anti-Human IgG, Fcgamma Fragment Specific; Jackson ImmunoResearch) at a concentration of 5 μg/ml for 1 h at RT or OIN at 4° C. After a washing step and a subsequent blocking step with 3% w/v milk powder in PBST, CD25-Fc at a concentration of 5 μg/ml was added and incubated for one hour at RT. In parallel, the unrelated proteins capture mAb, HSA and FCS (Fetal Calf Serum; Invitrogen) were coated at concentrations of 5 μg/ml, 10 μl/ml and 10 μg/ml, respectively. In addition, human IgG Fc fragment (Accurate Chemical) was captured at a concentration of 5 μg/ml via the capture mAb coated at 5 μg/ml.
(§2) After another washing step, a dilution series of the mutein S67.7 C6 in PBST covering an appropriate concentration range was added to the captured CD25-Fc and the control proteins capture mAb, HSA, FCS and captured human IgG Fc fragment and incubated for 1 h at RT. Bound mutein was subsequently detected via Streptactin-HRP conjugate (MBA) and the fluorogenic HRP-substrate QuantaBlu™ (PIERCE) according to the respective manufacturers' recommendations. After an appropriate incubation time at room temperature, fluorescence was excited at a wavelength of 320 nm (±12.5 nm) and measured at 430 nm (±17.5 nm) in a GENiosPlus plate reader. […]

In assay [4] the target is T1, human serum albumin (HSA, Sigma). The experiment in a line: ELISA, HSA coated at 10 µg/ml, mutein dilution series. As to the method:
(§3) For this purpose, the wells of black Fluotrac 600 ELISA plates (Greiner; 384 well) were coated with 20 μl of hCD22 (5 μg/ml, Peprotech) or control proteins hCD33-Fc (1 μg/ml, R&D Research), HSA (10 μg/ml, Sigma), hIgG1 (10 μg/ml, Jackson ImmunoResearch) O/N at 4° C.
(§4) After another washing step, a dilution series of the mutein S76.1H10, obtained in Example 9, in PBST covering an appropriate concentration rage was added to the coated hCD22 and the control proteins hCD33-Fc, HSA and hIgG1 and incubated for 1 h at RT. Bound mutein was subsequently detected via Streptactin-HRP conjugate (IBA) and the fluorogenic HRP-substrate QuantaBlu™ (PIERCE) according to the respective manufacturers' recommendations. After an appropriate incubation time at room temperature, fluorescence was excited at a wavelength of 320 nm (±12.5 nm) and measured at 430 nm (±17.5 nm) in a GENiosPlus plate reader.

A further assay concerns the target T4, hCD33-Fc (R&D) (human, UniProt P20138 18-259).
T4 construct: extracellular domain; Bought from R&D (printed as R&D Research and as R&D Systems); not shown: Fc part of the bought fusion protein; not described
The experiment in a line: ELISA, hCD33-Fc coated at 1 µg/ml, mutein dilution series. On the procedure: as §3, §4

Assay [5] concerns the target T3, CD25-Fc (recombinant human IL-2 R …). As to the kind of experiment: ELISA, CD25-Fc (5 µg/ml) captured via capture mAb, mutein dilution series, Streptactin-HRP detection; apparent KD from curve fit. On the procedure: as §1, §2
Assay [6] has as its target T5, bovine serum albumin (BSA; Roth) (bovine, UniProt P02769 25-607).
T5 construct: Control protein
The experiment in a line: ELISA, BSA coated at 10 µg/ml, mutein dilution series. On the procedure:
(§5) The affinity of the TLPC muteins for VEGF was measured as follows. In brief, a dilution series of the mutein S69.4 O13 obtained as described in Example 5 was tested in an ELISA assay for binding to rhuVEGF165 and the control protein BSA.
For this purpose, the wells of a black Fluotrac 600 microtiter plate (Greiner; 384 well) were coated with 1 μg/ml rhuVEGF165 (insect cells) and 10 μg/ml BSA (Roth) 0/N at 4° C. and blocked with 2% w/v BSA in PBST/0.1. After a washing step, a subsequent blocking step with 3% w/v milk powder in PBST and another washing step, a dilution series of the mutein S69.4 O13 in PBST covering an appropriate concentration range was incubated for 1 h at RT in the coated and blocked wells. Bound mutein was subsequently detected via anti-17 monoclonal antibody-HRP-conjugate and the fluorogenic HRP-substrate QuantaBlu™ as described above. After an appropriate incubation time at room temperature, fluorescence was excited at a wavelength of 320 nm (±12.5 nm) and measured at 430 nm (±17.5 nm) in a GENiosPlus plate reader.

Assay [7] deals with T6, Recombinant human vascular endothelial growth factor (165 aminoacids, rhuVEGF165) produced in insect cells … (human, UniProt P15692 27-191).
T6 construct: mature; Bought protein; also called rhuVEGF165 (insect cells)
T6 sequence (looked up): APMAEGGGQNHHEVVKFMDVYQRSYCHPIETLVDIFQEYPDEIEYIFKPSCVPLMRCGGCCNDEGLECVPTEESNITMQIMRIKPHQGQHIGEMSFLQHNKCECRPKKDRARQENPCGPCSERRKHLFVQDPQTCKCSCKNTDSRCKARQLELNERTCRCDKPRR
As to the kind of experiment: ELISA, rhuVEGF165 coated at 1 µg/ml, mutein dilution series, anti-T7 mAb-HRP detection; apparent KD from curve fit. As to the method: as §5
For this purpose, the wells of a black Fluotrac 600 microtiter plate (Greiner; 384 well) were coated with 1 μg/ml rhuVEGF165 (insect cells) and 10 μg/ml BSA (Roth) 0/N at 4° C. and blocked with 2% w/v BSA in PBST/0.1. […] Bound mutein was subsequently detected via anti-17 monoclonal antibody-HRP-conjugate and the fluorogenic HRP-substrate QuantaBlu™ as described above. After an appropriate incubation time at room temperature, fluorescence was excited at a wavelength of 320 nm (±12.5 nm) and measured at 430 nm (±17.5 nm) in a GENiosPlus plate reader.
The curve was fitted by non-linear least squares regression with the help of the computer program Kaleidagraph (Synergy software) according to the equation [P·L]=([P]ₜ[L]ₜ)/(KD+[P]ₜ). Thereby [P]ₜ is the total concentration of immobilized target (in relative fluorescence units), [L]ₜ is the concentration of the applied TLPC mutein, respectively, [P·L] is the concentration of the formed complex (in relative fluorescence units, rFU), and KD is the apparent dissociation constant.

T1 sequence (P02768 25-609 limits assumed): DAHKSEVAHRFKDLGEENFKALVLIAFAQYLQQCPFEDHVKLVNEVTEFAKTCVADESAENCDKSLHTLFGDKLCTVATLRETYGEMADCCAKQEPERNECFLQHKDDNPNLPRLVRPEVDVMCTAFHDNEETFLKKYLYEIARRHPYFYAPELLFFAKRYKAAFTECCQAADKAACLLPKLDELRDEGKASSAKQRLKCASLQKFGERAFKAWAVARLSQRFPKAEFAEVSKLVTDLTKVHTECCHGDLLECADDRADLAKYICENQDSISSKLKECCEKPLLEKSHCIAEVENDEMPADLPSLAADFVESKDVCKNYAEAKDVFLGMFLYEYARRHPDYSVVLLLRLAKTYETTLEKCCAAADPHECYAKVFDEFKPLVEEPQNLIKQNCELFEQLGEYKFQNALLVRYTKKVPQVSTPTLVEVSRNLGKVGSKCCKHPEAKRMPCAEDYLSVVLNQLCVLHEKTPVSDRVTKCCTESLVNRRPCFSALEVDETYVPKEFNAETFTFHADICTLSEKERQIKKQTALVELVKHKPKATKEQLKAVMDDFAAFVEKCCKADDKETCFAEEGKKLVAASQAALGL
Sequence of hCD33-Fc (R&D) (P20138 18-259): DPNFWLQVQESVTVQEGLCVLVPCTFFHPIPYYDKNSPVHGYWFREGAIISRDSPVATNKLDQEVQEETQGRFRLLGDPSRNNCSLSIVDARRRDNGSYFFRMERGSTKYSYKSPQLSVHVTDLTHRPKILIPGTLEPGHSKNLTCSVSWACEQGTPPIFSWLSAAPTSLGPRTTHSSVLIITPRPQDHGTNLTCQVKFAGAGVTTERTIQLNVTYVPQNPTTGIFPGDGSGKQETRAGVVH
Sequence of UniProt P02769 (P02769 25-607 limits assumed): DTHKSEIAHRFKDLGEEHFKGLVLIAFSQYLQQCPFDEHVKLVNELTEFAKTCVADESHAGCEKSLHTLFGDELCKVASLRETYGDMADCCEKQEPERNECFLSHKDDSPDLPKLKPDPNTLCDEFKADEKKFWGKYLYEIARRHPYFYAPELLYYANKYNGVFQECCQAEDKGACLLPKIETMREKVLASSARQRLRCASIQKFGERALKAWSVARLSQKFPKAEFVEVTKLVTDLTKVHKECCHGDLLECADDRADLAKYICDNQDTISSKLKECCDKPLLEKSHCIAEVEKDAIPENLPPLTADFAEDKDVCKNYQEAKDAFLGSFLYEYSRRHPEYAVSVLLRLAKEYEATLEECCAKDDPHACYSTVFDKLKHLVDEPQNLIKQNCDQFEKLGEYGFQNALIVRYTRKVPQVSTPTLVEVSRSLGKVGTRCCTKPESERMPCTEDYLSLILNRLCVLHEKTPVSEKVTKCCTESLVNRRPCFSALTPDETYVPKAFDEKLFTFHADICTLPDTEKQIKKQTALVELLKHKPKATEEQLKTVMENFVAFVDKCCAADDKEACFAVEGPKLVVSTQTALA

B1: TLPC mutein F92.8 M1.2 E15, monomeric fraction (designed binder)
chain: DGGVGRRGLSGTWYLKAMAVDREFPEMNLESVTPMTLTGLAGGDLGVKVTMLISGRCQEVKAVLEGTNELDKYTADGGKHVAYIIHSHVTDHLILYSEGQLHGKPVRGVKLVGRDPKNNLEALEDFEKAAGARGLSTESILIPRQSETCSPGSAWSHPQFEK
modifications: For flow cytometry the protein was labelled with fluorescein (NHS ester, twofold molar ratio). It was unlabelled in the ELISA.
notes: Made from pTLPC9 in E. coli W3110, with Strep-tag II; For flow cytometry the monomeric fraction was labelled with fluorescein at a twofold molar ratio; also called F92.8 M1.2 E1S
As to B1, the figures for the binding result in assay [1] and in assay [2] were “no binding” and “no binding (tested: 2.5 µg in 30 µl)”, respectively. Also, the Kd in assay [3] was 131 nM.

B2: TLPC mutein S76.1 H10 Monomer (designed binder)
chain: DGGRWRVCWSGTWYLKAMTVDREFPEMNLESVTPMTLTQLDGKNLEAKVTMLISGRCQEVKAVLELTNEGVKYTADGGKHVAYIIPSRVSDHFIFYSEGQLHGKPVRGVKLVGRDPKNNLEALEDFEKAAGARGLSTESILIPRQSETCSPGDASMTGGQQMGSAWSHPQFEK
notes: Made from pTLPC8, with T7-tag and Strep-tag II at the C-terminus; This is the monomeric peak of the size exclusion chromatography; also called CD22 S76.1 H10 Monomer
For the molecule B2, the binding result (in assay [4]; in the assay with hCD33-Fc (R&D)) was “no binding” throughout.

B3: TLPC mutein S76.1 H10 Dimer (designed binder)
chain: DGGRWRVCWSGTWYLKAMTVDREFPEMNLESVTPMTLTQLDGKNLEAKVTMLISGRCQEVKAVLELTNEGVKYTADGGKHVAYIIPSRVSDHFIFYSEGQLHGKPVRGVKLVGRDPKNNLEALEDFEKAAGARGLSTESILIPRQSETCSPGDASMTGGQQMGSAWSHPQFEK
notes: Same polypeptide as the monomer; this is the dimeric peak of the size exclusion chromatography; C-terminal T7-tag and Strep-tag II (pTLPC8); also called CD22 S76.1 H10 Dimer
On to B3, for which the binding result (in assay [4]; with hCD33-Fc (R&D)) was “no binding” throughout.

B4: TLPC mutein S67.7 C6 (designed binder)
chain: DGGVGRRGLSGTWYLKAMTVDREFPEMNLESVTPMTLTGLAGGDLEAKVTMLISGRCQEVKAVLEGTNELDKYTADGGKHVAYIIHSHVTDHLIFYSEGQLHGKPVRGVKLVGRDPKNNLEALEDFEKAAGARGLSTESILIPRQSETCSPGDASMTGGQQMGSAWSHPQFEK
notes: Made from pTLPC8, with C-terminal T7 tag and Strep-tag II; monomeric fractions were used; For flow cytometry it was labelled with fluorescein at an equimolar ratio; also called S67.7-C06
Consider B4, for which the binding result in assay [1] is “no binding”. In assay [5], the Kd was found to be 1180 nM.

B5: TLPC mutein S69.4 O13 (designed binder)
chain: DGGGIRRSMSGTWYLKAMTVDREFPEMNLESVTPMTLTLLKGHNLEAKVTMLISGRCQEVKAVLGRTKERKKYTADGGKHVAYIIPSAVRDHVIFYSEGQLHGKPVRGVKLVGRDPKNNLEALEDFEKAAGARGLSTESILIPRQSETCSPGDASMTGGQQMGSAWSHPQFEK
notes: Mutein of human tear lipocalin (closed-end library); Made from pTLPC8 in E. coli, so it carries a C-terminal T7 detection tag followed by Strep-tag II; Monomeric gel filtration fractions were used; also called S69.4 013; VEGF S69.4-O13
For the molecule B5, in assay [6], the binding result is “no binding”. Further, in assay [7], the Kd was 109 nM.
